According to article PMC12136788:
This is one part of the list.

B1: chr11:125776112:125777381:-|three_prime_utr|ENSG00000196844|control|control|control (ssRNA)
RNA: GGGAGUUCUACAGUCCGACGAUCCACUACGCUCUUUUUCUCUUCCCUGAACCUGAAUUUUGCUCUCCUCUUCUAUGCAUUGGUAGAGAGUGAGAAAGCCAGCUCAUAGUGAAAAGACAAGCAGGCAUAAGGAGACGCAGUGUGCAACAGAGGAUUGAGCAUCA
B2: chr11:62152232:62152344:+|3pUTR|ENSG00000149503|unk|FALSE|unique (ssRNA)
RNA: GGGAGUUCUACAGUCCGACGAUCUGCUCUGUAAAUAGUUGUUUUAAUUUAGCUGAAUGUUAGCAUUUUAGUCUUUGGCAUUUUAGCGUUUGGGAGGUAGAUUAAUAAAGUAUAUUCCUUCAAGCCUGCUGUUGAUACCAUGAACAACAGAGGAUUGAGCAUCA
B3: chr4:17704999:17705206:-|CDS|ENSG00000047662|control|control|control (ssRNA)
RNA: GGGAGUUCUACAGUCCGACGAUCAAUCAAACAUCAGACAGAAGAGGAGAAGAAACAUCUCAAAGACCAGCUAGUGAAGCGACUAGAAGACUUGGUAAAGAAGCACACCGUGGAAAUCAAAUCCGUUCGCUCGUCCGUGGAGGCCAACAGAGGAUUGAGCAUCA
B4: ENSG00000120451:stop:overlap|stop_codon|ENSG00000120451|stop_codon|NA|stop_codon (ssRNA)
RNA: GGGAGUUCUACAGUCCGACGAUCCUGCUACCACCUCUGCCUCAGAUACCCCAGGCAACUCUAAGAGGAUGGGUGUCUCCUCUUAGCUGGUUAUUCACGCCUUCUUCCCAGGUCAGGGAAGUAGAGUUACUCGGCCACCAGAGACAACAGAGGAUUGAGCAUCA
B5: chr6:132680848:132683139:-|three_prime_utr|ENSG00000112299|control|control|control (ssRNA)
RNA: GGGAGUUCUACAGUCCGACGAUCGAUAAUUUAAAAAAUGAUGGAUGAGAAAAGAAAGAUUGGUCCGGGUUAAUAUUAUCCUCUAGUAUAAGUGAAUUACUAGUUUCUCUUUAUUUAGACAAACACACACACACCAGAUAAUAUCAACAGAGGAUUGAGCAUCA
B6: ENSG00000198589:be:win_8751|3pUTR|ENSG00000198589|bound_else_gene|NA|bound_elsewhere_windowed (ssRNA)
RNA: GGGAGUUCUACAGUCCGACGAUCGCUGCUGGGUUCUGUAGUUUUAAAAAAUCUAUAUUUUUAGUCAUAAUGAGAAGUCUAUUUUCACCAAUUAUGGAAACAUACAGUGGAGCAAGUAAACCACUUAUUCCAGCUAUAAUAUUACAACAGAGGAUUGAGCAUCA
B7: ENSG00000113300:stop:overlap|stop_codon|ENSG00000113300|stop_codon|NA|stop_codon (ssRNA)
RNA: GGGAGUUCUACAGUCCGACGAUCUGGAGCUCUUACUGCCUUUCCUGCCCCAAGUCAACGGCAUCCACCUUCCUGGCAGGAGGUAGUCAAGCACCUUCAGAGGACAGCCUUGAUUCACUUGUAAACUUGUGAAAAUCUGAACAUCAACAGAGGAUUGAGCAUCA
B8: chr7:157539055:157540713:-|three_prime_utr|ENSG00000155093|control|control|control (ssRNA)
RNA: GGGAGUUCUACAGUCCGACGAUCACGGAUGUUGUCAGGAAUCAUGAUCUGACUUUAAUUGUGUGUCUUCUAUUAUAACUGCAUAGUAAUAGGGCCCUUAGCUCUCCCGUAGUCAGCGCAGUUUAGCAGUUAAAAGUGUAUUUUCAACAGAGGAUUGAGCAUCA
B9: chr14:59746188:59746291:-|CDS|ENSG00000139970|unk|total|mutant (ssRNA)
RNA: GGGAGUUCUACAGUCCGACGAUCCUGGGUACACCCGGCCCCUCCUUACCAGAUGUGCCUGGGACCGAGUCUCGUGGCUUAUUCCGUUCUGAUUCUGGAACCGAGAUGACUCCUGCAGAGUCCACGGAAGUGAACAAGAUCUUACAACAGAGGAUUGAGCAUCA
B10: chr2:120222042:120222143:-|CDS|ENSG00000226479|msi1|total|mutant (ssRNA)
RNA: GGGAGUUCUACAGUCCGACGAUCGAAAUUUUCCCAUUUUUAAGAGAAUAUGGGAACAUUUCAUAUGAUCUCCAUCACGAAGACCGUGAAGAUGCUGAAGAAACAUCAGUUCCAGAAGCUCCGAAAAUUGCUCCAAUAUUUGGACAACAGAGGAUUGAGCAUCA
B11: chr14:53038166:53038268:-|3pUTR|ENSG00000100523|unk|FALSE|unique (ssRNA)
RNA: GGGAGUUCUACAGUCCGACGAUCGAGCUUUUGGCAGAGUCUUCGGGGUUUUCUAGGUAUAAAAUCAUAUCAGCGAAGAGAGCUAGUUUGAUUUCUUUUCCCAGUUGGAUGCCUUUUAUUUAUUUCUCUUGCCUGAUUGCUCUACAACAGAGGAUUGAGCAUCA
B12: ENSG00000107863:be:win_5651|CDS|ENSG00000107863|bound_else_gene|NA|bound_elsewhere_windowed (ssRNA)
RNA: GGGAGUUCUACAGUCCGACGAUCCCACGACCGACACACCUUUGUCUCUUCAUUGCAACACAGGCAGUUCUUCCAGCACCUUGGCUUCAACAAACAGGCCCCUUCUUUCCAUACCACCACAGUCACCUGACCAAAUAAACGGAGCAACAGAGGAUUGAGCAUCA
B13: chr5:160402147:160402258:-|3pUTR|ENSG00000164609|unk|total|mutant (ssRNA)
RNA: GGGAGUUCUACAGUCCGACGAUCAUGGUUUACAUUACCGUUUGUUUUCAUUGUGAUUGCCCCUAUGUAACAAUCAUGAAUAUCCGAUUUUUUAAAUUGCCGAAUAUCCUAAUAUUUACCGCCAGCAGCUGUUACUUUGUUUGUCAACAGAGGAUUGAGCAUCA
B14: ENSG00000105355:stop:overlap|stop_codon|ENSG00000105355|stop_codon|NA|stop_codon (ssRNA)
RNA: GGGAGUUCUACAGUCCGACGAUCCGUGGCUCGUGGGACCCUUUGCCCCUGGAAUCACUGAGAAAGCCCCGGAGGAGAAGAAGUAGGGGGAGAGGAGAGGACUCAGCGGGCCCCGUCUCUAUAAUGCAGCUGUGCUCUGGAGUCCAACAGAGGAUUGAGCAUCA
B15: chr11:95166718:95166819:-|3pUTR|ENSG00000149212|unk|total|mutant (ssRNA)
RNA: GGGAGUUCUACAGUCCGACGAUCACAGUUUCCCCUUCCUCUUUCUCUUCACAUUUACUCUUUUCAACCCAAAAUAAGAGACACCGAAAGCAAACCACAGCCAGUUUGGCAUCUUCUCAGUGCUACCCGUACCGGCACAUACACCAACAGAGGAUUGAGCAUCA
B16: ENSG00000143799:stop:overlap|stop_codon|ENSG00000143799|stop_codon|NA|stop_codon (ssRNA)
RNA: GGGAGUUCUACAGUCCGACGAUCACCAGCAGAAAGUCAAGAAGACAGCGGAAGCUGGAGGAGUGACAGAAAAGAAGCUCUAUUAGCUGACCACGGUUGUUACAAACAGACAGAUGAGAUGGACCAAUCGUAGUCUCCCAAGGCCAACAGAGGAUUGAGCAUCA
B17: chr2:43888187:43888297:-|3pUTR|ENSG00000138095|unk|FALSE|unique (ssRNA)
RNA: GGGAGUUCUACAGUCCGACGAUCAAAAUGUUAUUCCUUUAUUUAAGAUUCACUUAUUAGUCUGCUGUUUCUCUGAAAAAUUUUAGAGCUAGGUAUAGUGACCGUGAACUUUCUAACGCAUAAUAUUCUGUGAUACAGCCAUUCCAACAGAGGAUUGAGCAUCA
B18: chr8:23842320:23842421:-|3pUTR|ENSG00000159167|msi1|FALSE|unique (ssRNA)
RNA: GGGAGUUCUACAGUCCGACGAUCUAUGUAUCUACAAUACAUAUAUCUACACAUACAGAAAGAAGCAGUUCUCACAAUGUUGCUAGUUUUUUGCUUCUCUUUCCCCCACCCUACUCCCUCCAAUUCCCCCUUAAACUUCCAAAGCAACAGAGGAUUGAGCAUCA
B19: chr10:91630394:91630495:-|CDS|ENSG00000119938|unk|FALSE|unique (ssRNA)
RNA: GGGAGUUCUACAGUCCGACGAUCCUUGGACCUUAAUGAUAUCUCCUCUGCCUUAAAACACCACGAGGAGAAAAACUUGAUUUUAGAUUUCCCUCAGCCUUCAACCGAUUACUUAAGUUUCCGGAGCCACUUUCAGAAGAACUUCAACAGAGGAUUGAGCAUCA
B20: ENSG00000026025:stop:overlap|stop_codon|ENSG00000026025|stop_codon|NA|stop_codon (ssRNA)
RNA: GGGAGUUCUACAGUCCGACGAUCUGGCCCUUGACAUUGAGAUUGCCACCUACAGGAAGCUGCUGGAAGGCGAGGAGAGCAGGUAGGGAACUCAGACUUGGAUGCGUGAACUAAUGGUGACCAUUUGUUAGGCCCUGUGCCACUCAACAGAGGAUUGAGCAUCA
B21: chr19:42935403:42935769:-|CDS|ENSG00000221878|control|control|control (ssRNA)
RNA: GGGAGUUCUACAGUCCGACGAUCCUACAUCUGGUACAAAGGACAAAUCAGGGACCUCUACCAUUAUGUUACAUCAUAUAUAGUAGACGGUCAAAUAAUUAAAUAUGGGCCUGCAUACAGUGGACGAGAAACAGUAUAUUCCAACAACAGAGGAUUGAGCAUCA
B22: chr21:34788506:34788607:-|3pUTR|ENSG00000159216|msi1|FALSE|unique (ssRNA)
RNA: GGGAGUUCUACAGUCCGACGAUCUUGUUAAUGCCUAUAACUUUUUUUCAAUUUUUUUGUGUGUGUUUCUAAGGACUUUUUCUUAGGUUUGCUAAAUACUGUAGGGAAAAAAAUGCUUCUUUCUACUUUGUUUAUUUUAGACUUCAACAGAGGAUUGAGCAUCA

target: MSI1 full-length (mouse, UniProt Q61474 1-362); assay: nsRBNS (natural sequence RNA bind-n-seq); RBNS binding buffer (assumed for nsRBNS): 25 mM Tris pH 7.5, 150 mM KCl, 3 mM MgCl2, 0.01% Triton X-100, 500 ug/ml BSA, 20 U/ml SUPERase-In, 4 C; UNK is unkempt and MSI1 is Musashi-1; names of the RNAs are library labels; protein concentration not given here; high values mean tight binding
UniProt Q61474, sequence (Q61474 whole entry): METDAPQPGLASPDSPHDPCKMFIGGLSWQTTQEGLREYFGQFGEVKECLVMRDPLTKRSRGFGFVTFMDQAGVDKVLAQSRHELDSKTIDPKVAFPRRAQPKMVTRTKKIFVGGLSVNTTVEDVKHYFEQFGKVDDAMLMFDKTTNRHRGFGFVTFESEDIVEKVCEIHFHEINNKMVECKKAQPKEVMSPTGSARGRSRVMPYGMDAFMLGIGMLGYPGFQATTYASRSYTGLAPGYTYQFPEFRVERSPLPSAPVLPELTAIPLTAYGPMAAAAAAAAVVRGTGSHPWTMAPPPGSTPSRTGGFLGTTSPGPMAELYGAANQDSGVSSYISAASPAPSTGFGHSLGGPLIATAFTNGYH

Row | Binder | binding signal [enrichment R]
1 | B1 | 0.399
2 | B2 | 70
3 | B3 | 0.62
4 | B4 | 0.534
5 | B5 | 13.8
6 | B6 | 4.06
7 | B7 | 38.7
8 | B8 | 7.04
9 | B9 | 0.317
10 | B10 | 0.106
11 | B11 | 0.593
12 | B12 | 0.459
13 | B13 | 0.471
14 | B14 | 0.721
15 | B15 | 0.709
16 | B16 | 0.331
17 | B17 | 3.28
18 | B18 | 0.666
19 | B19 | 0.264
20 | B20 | 0.608
21 | B21 | 0.617
22 | B22 | 0.884
